Source: the supplement of paper PMC4166925
± gives the standard deviation of the averaged measurements. The full ranking holds about 33,000 sequences; the median of “E-score (dimensionless, -0.5 to 0.5)” is about -0.049, and the highest 2% start at about 0.37. The list shows a part of the results.

System: T1, PmTbr T-box DNA-binding domain (GST fusion)
T1 sequence: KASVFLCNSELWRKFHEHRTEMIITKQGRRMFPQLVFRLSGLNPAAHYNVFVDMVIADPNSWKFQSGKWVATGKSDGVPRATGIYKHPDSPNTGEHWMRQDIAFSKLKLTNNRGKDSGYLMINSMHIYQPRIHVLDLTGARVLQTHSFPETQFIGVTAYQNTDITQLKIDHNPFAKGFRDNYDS
Assay: PBM E-score of 8-mer (E-score (dimensionless, -0.5 to 0.5)); Tbr is Tbrain of the sea star Patiria miniata (Pm) or the sea urchin Strongylocentrotus purpuratus (Sp); higher = stronger binding preference; most listed sequences are background and not binding sites
Conditions: the construct has about 5 more residues each side
Procedure: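 Universal protein-binding microarray (Agilent AMADID 016060, 60-bp probes with a 35-bp variable region) incubated with 200 nM GST-fused Patiria miniata Tbr T-box DNA-binding domain (residues 272-466) in PBS pH 7.5. Scored for every ungapped 8-mer (given with its reverse complement) by the Universal PBM Analysis Suite as E-score (modified Wilcoxon-Mann-Whitney enrichment, range -0.5 to 0.5; >0.45 counts as bound) and Z-score of median probe intensity. Two replicate arrays (datasets 1 and 2).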
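Note: 200 nM protein in PBS on universal arrays averaged over duplicate arrays.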

| Sequence | PBM E-score of 8-mer |
| --- | --- |
| ATTCTCTG | -0.174 ± 0.12 |
| AGTTATCA | 0.23 ± 0.017 |
| CGCCTCCG | 0.198 ± 0.041 |
| GAGCTATA | -0.0341 ± 0.048 |
| AGAACTAT | -0.19 ± 0.0047 |
| TGTATCAA | -0.0371 ± 0.041 |
| ACCCGAGC | -0.00295 ± 0.055 |
| GCCAGACA | -0.0878 ± 0.03 |
| AGTGCTGG | -0.0402 ± 0.1 |
| CTACTGAC | 0.111 ± 0.032 |
| ATACCGGG | -0.18 ± 0.062 |
| GGTGTCAC | 0.481 ± 0.0062 |
| ACAAACTG | -0.0233 ± 0.013 |
| AGGCGAGG | 0.184 ± 0.027 |
| CGGGAAGA | -0.147 ± 0.021 |
| ATGTTATC | 0.121 ± 0.0061 |
| AAAAACAG | -0.19 ± 0.027 |
| AGGCAAAT | -0.324 ± 0.053 |
| AGCAATAA | -0.195 ± 0.065 |
| GACTTGCA | 0.197 ± 0.014 |
| TCGACCCA | -0.0384 ± 0.048 |
| ATGCATGC | -0.32 ± 0.085 |
| AACGGAAC | 0.0218 ± 0.0039 |
| AGATCGCT | -0.135 ± 0.035 |
| ATTCAAAT | -0.112 ± 0.087 |

| Sequence | PBM E-score of 8-mer |
| --- | --- |
| CTCGCTAA | 0.3143 ± 0.00076 |
| ATTACGGG | -0.213 ± 0.066 |
| AGTTGTAT | -0.0326 ± 0.042 |
| TAAGATCA | -0.183 ± 0.0042 |
| GCAAGCCA | -0.221 ± 0.037 |
| GAATATGC | -0.192 ± 0.012 |
| GAGCGTTA | 0.0731 ± 0.02 |
| ATTGGCAC | 0.385 ± 0.0064 |
| GATACGGA | 0.0848 ± 0.025 |
| CTACGGAC | -0.212 ± 0.021 |
| AGACACCA | 0.2603 ± 0.00061 |
| CCTGTTGA | 0.091 ± 0.045 |
| AGAGTACA | -0.224 ± 0.032 |
| ACCCCGCA | 0.0949 ± 0.025 |
| AAGATCAA | -0.348 ± 0.034 |
| GACACTAA | 0.293 ± 0.0056 |
| GATCTCAC | 0.336 ± 0.012 |
| CCGACTAA | -0.138 ± 0.054 |
| ATCTATGC | -0.21 ± 0.016 |
| TCTCGTCA | 0.226 ± 0.0041 |
| GTTGCAAA | 0.211 ± 0.036 |
| AATTAATC | -0.246 ± 0.048 |
| AATAGCCA | -0.109 ± 0.0071 |
| AGGGTCTC | -0.201 ± 0.014 |
| CTGCATGC | -0.176 ± 0.0035 |

| Sequence | PBM E-score of 8-mer |
| --- | --- |
| CTCCGCGC | -0.0982 ± 0.14 |
| AGTGCCTC | -0.136 ± 0.0055 |
| CGCGATAG | 0.2514 ± 0.0021 |
| AACAGCCC | -0.015 ± 0.027 |
| ATCGTACG | -0.176 ± 0.0019 |
| AAACGCAC | 0.1473 ± 0.0014 |
| GAGAACTC | 0.022 ± 0.075 |
| CCCAGGTA | -0.102 ± 0.03 |
| CCCCTCGA | 0.0588 ± 0.073 |
| CAATGGGC | -0.0947 ± 0.0019 |
| GCTTATAC | -0.236 ± 0.077 |
| AGAGAGTA | -0.12 ± 0.049 |
| TCTGGAAA | -0.131 ± 0.019 |
| GAGGCAAC | 0.004 ± 0.034 |
| ACGTCCAA | -0.167 ± 0.018 |
| GTTGGTAA | -0.0132 ± 0.0082 |
| AAGGGATG | -0.275 ± 0.013 |
| TCCACCGA | -0.118 ± 0.049 |
| CGCTGCTA | -0.189 ± 0.036 |
| CGTGGAGA | -0.109 ± 0.058 |
| ATGAGCGG | -0.141 ± 0.023 |
| ACGATTCG | 0.125 ± 0.026 |
| GGCTTAAC | 0.054 ± 0.038 |
| TACTGCTA | -0.0813 ± 0.025 |
| AGGGCCCT | -0.344 ± 0.072 |

| Sequence | PBM E-score of 8-mer |
| --- | --- |
| ATCTGCTC | -0.303 ± 0.025 |
| AAACACAT | 0.225 ± 0.049 |
| AAATGACT | -0.177 ± 0.018 |
| GCAGGTTA | -0.0791 ± 0.045 |
| ACTGCGGG | -0.00779 ± 0.061 |
| ATCAGACG | -0.248 ± 0.03 |
| ATCCTCGG | -0.299 ± 0.075 |
| AGTCGTAC | -0.128 ± 0.048 |
| TGGAGCAA | -0.0777 ± 0.022 |
| AGAATAGC | 0.0843 ± 0.0062 |
| CCCAATAA | -0.0316 ± 0.069 |
| ACGAGGGG | -0.153 ± 0.0082 |
| GCGTTGAC | 0.29 ± 0.0058 |
| AAAGTCAT | -0.198 ± 0.053 |
| AGCCATTG | -0.194 ± 0.01 |
| CACGAGGG | 0.11 ± 0.017 |
| AGGACTAA | -0.132 ± 0.058 |
| AGATCCAC | 0.0223 ± 0.095 |
| AATGTGAC | 0.352 ± 0.014 |
| GAGCGGAA | -0.111 ± 0.042 |
| ACAGGTAG | 0.175 ± 0.041 |
| AGCAAGGA | 0.00816 ± 0.093 |
| CGTGTGCA | 0.0443 ± 0.011 |
| AAACGCGC | 0.169 ± 0.0085 |
| CACCCGTC | 0.251 ± 0.044 |

| Sequence | PBM E-score of 8-mer |
| --- | --- |
| CAAGTGGG | 0.211 ± 0.016 |
| AAGTGTAA | 0.381 ± 0.05 |
| ACTCACTG | -0.0228 ± 0.028 |
| CAACGGCC | 0.107 ± 0.051 |
| AACAACAA | 0.0602 ± 0.04 |
| CAATGCGA | 0.0627 ± 0.02 |
| CGCCCAAC | 0.0472 ± 0.046 |
| ACCGCTGG | 0.0975 ± 0.0091 |
| AGGGACAG | -0.136 ± 0.046 |
| AGAGTAAT | -0.0574 ± 0.05 |
| TCATTGCA | -0.111 ± 0.14 |
| GAACTCGC | 0.2583 ± 0.0016 |
| TCTCAACA | 0.125 ± 0.071 |
| CCCGCGCC | 0.112 ± 0.038 |
| AGAACGTA | -0.214 ± 0.057 |
| AATTAGCG | 0.313 ± 0.018 |
| ACTTCCAG | 0.0388 ± 0.00075 |
| AGTAGCCG | -0.167 ± 0.002 |
| CTAGCTCC | -0.0784 ± 0.035 |
| AGGTCCGA | -0.203 ± 0.063 |
| GAAGAGGA | -0.173 ± 0.037 |
| ACTCTTCT | -0.264 ± 0.02 |
| AATGTCTC | -0.174 ± 0.042 |
| ATTCTAAG | -0.0503 ± 0.0011 |
| CCCTCCCC | 0.0115 ± 0.024 |

| Sequence | PBM E-score of 8-mer |
| --- | --- |
| AACAATGA | 0.0586 ± 0.015 |
| CCACCCCG | 0.235 ± 0.033 |
| CCTCAAAC | -0.0981 ± 0.017 |
| AGACGACA | -0.00785 ± 0.026 |
| ATATCTGA | -0.307 ± 0.032 |
| ACCATAAG | -0.205 ± 0.034 |
| GAGATTGA | -0.0419 ± 0.051 |
| CATTCCCA | -0.0846 ± 0.088 |
| ATGCCGCA | -0.0107 ± 0.049 |
| ACCTGGAA | 0.218 ± 0.051 |
| TTCACAAA | 0.204 ± 0.039 |
| CAGGGATA | -0.326 ± 0.061 |
| CAGACGTA | -0.231 ± 0.053 |
| GACCAAGA | -0.0649 ± 0.057 |
| CCCAGCTA | -0.183 ± 0.034 |
| GCTCATCC | -0.161 ± 0.023 |
| AAACCGCC | -0.0851 ± 0.023 |
| ACGCCCCC | -0.101 ± 0.068 |
| CGCACGTA | 0.13 ± 0.011 |
| TTACCTAA | -0.0657 ± 0.073 |
| GGGCGTAC | -0.212 ± 0.088 |
| GAATATTA | 0.0144 ± 0.0076 |
| CCAATGCG | -0.127 ± 0.068 |
| ACCATTTA | -0.0394 ± 0.087 |
| CTGCGGTA | -0.278 ± 0.07 |

| Sequence | PBM E-score of 8-mer |
| --- | --- |
| GTTGAAGA | -0.00415 ± 0.042 |
| AACACTTA | 0.42 ± 0.019 |
| GCGAAAAC | 0.27 ± 0.057 |
| CATGGATA | -0.114 ± 0.075 |
| AATAACGT | -0.105 ± 0.05 |
| ATAACAGG | 0.156 ± 0.033 |
| CGTTAACA | 0.372 ± 0.044 |
| CGGGAGTC | -0.155 ± 0.0094 |
| GAGCTAGC | -0.00632 ± 0.026 |
| AAGATGAG | -0.231 ± 0.067 |
| CTCGCTAC | 0.0679 ± 0.05 |
| GATAGTGA | 0.2087 ± 0.0014 |
| CCAAGGGG | -0.193 ± 0.035 |
| GAGCCATA | -0.21 ± 0.0091 |
| AAACCATA | -0.137 ± 0.061 |
| AAGAGCAC | -0.201 ± 0.013 |
| CCACGCGA | 0.115 ± 0.034 |
| CGTGTCGC | 0.295 ± 0.023 |
| ACAGTCAG | -0.169 ± 0.02 |
| ACAATTAA | 0.06793 ± 0.00057 |
| CACCAACC | 0.149 ± 0.056 |
| AGAAGCGA | 0.0714 ± 0.048 |
